Values come from read counts of a selection and are noisy.
System: NB7
Test: fold depletion of shRNA, plasmid library share / infected cells without Dox share (9 days) (ratio); higher = more depleted after infection (more toxic, leaky expression from a Tet-inducible vector; NB7 is a neuroblastoma line without caspase-8)
[1] = shRNA pool: CD95 ORF + CD95 3'UTR + Venus libraries
[2] = shRNA pool: CD95L ORF + CD95L 3'UTR + Venus libraries
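Further: shRNA barcodes quantified by deep sequencing of PCR amplicons from cellular DNA, counts expressed as percent of each subpool, ratio averaged over two biological duplicates.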

Sequence: CATTTTGAGCAGGAGAGTATT
- fold depletion of shRNA [1]: 1.29

Sequence: CATTTTTCTTCCAAATGCAGA
- fold depletion of shRNA [1]: 0.905

Sequence: CATTTTTGCCTTGGTGCTCAT
- fold depletion of shRNA [1]: 0.961

Sequence: CATTTTTGTGAAATGAAAACA
- fold depletion of shRNA [2]: 0.7

Sequence: CCAAAAAATACTTAATAGTCC
- fold depletion of shRNA [1]: 0.721

Sequence: CCAAAAGTGTTAATGCCCAAG
- fold depletion of shRNA [1]: 1.13

Sequence: CCAAAATAGATGAGATCAAGA
- fold depletion of shRNA [1]: 0.856

Sequence: CCAAACATGGAAATATCACCA
- fold depletion of shRNA [1]: 1.71

Sequence: CCAAACTTTTTTTGTAACTCT
- fold depletion of shRNA [1]: 1.22

Sequence: CCAAAGTATACTTCCGGGGTC
- fold depletion of shRNA [2]: 3.32

Sequence: CCAAATAGGAGTGTATGCAGA
- fold depletion of shRNA [1]: 1.84

Sequence: CCAAATGTGAACATGGAATCA
- fold depletion of shRNA [1]: 0.526

Sequence: CCAACATATTTGTAGATTTTT
- fold depletion of shRNA [1]: 1.31

Sequence: CCAACGAGAAGCGCGATCACA
- fold depletion of shRNA [2]: 0.988
- fold depletion of shRNA [1]: 1.59

Sequence: CCAACTTCAAGATCCGCCACA
- fold depletion of shRNA [2]: 2.39
- fold depletion of shRNA [1]: 1.29

Sequence: CCAACTTTAAATCCTGAAACA
- fold depletion of shRNA [1]: 1.78

Sequence: CCAAGAAGGGAAGGAGTACAC
- fold depletion of shRNA [1]: 1.65

Sequence: CCAAGACACAGCAGAACAGAA
- fold depletion of shRNA [1]: 1.97

Sequence: CCAAGGATGTTTAAAATCTAG
- fold depletion of shRNA [1]: 0.77

Sequence: CCAAGGGATTGGAATTGAGGA
- fold depletion of shRNA [1]: 0.543

Sequence: CCAAGGTTCTCATGAATCTCC
- fold depletion of shRNA [1]: 2.14

Sequence: CCAAGTGCAAAGAGGAAGGAT
- fold depletion of shRNA [1]: 2.07

Sequence: CCAAGTGCAGATGTAAACCAA
- fold depletion of shRNA [1]: 1.58

Sequence: CCAAGTGGACCTTGAGACCAC
- fold depletion of shRNA [2]: 1.35

Sequence: CCAAGTTTCTAAGATTTAAGA
- fold depletion of shRNA [1]: 0.942

Sequence: CCAATCTTTGTACTCTTGCAG
- fold depletion of shRNA [1]: 0.344

Sequence: CCAATGCCCCACTGGCAGCAT
- fold depletion of shRNA [2]: 2.34

Sequence: CCAATTCCACTAATTGTTTGG
- fold depletion of shRNA [1]: 0.818

Sequence: CCACAACATCGAGGACGGCGG
- fold depletion of shRNA [2]: 0.637
- fold depletion of shRNA [1]: 1.18

Sequence: CCACAACGTCTATATCACCGC
- fold depletion of shRNA [2]: 2.32
- fold depletion of shRNA [1]: 1.68

Sequence: CCACAAGGTCTACATGAGGAA
- fold depletion of shRNA [2]: 1.49

Sequence: CCACAAGTTCAGCGTGTCCGG
- fold depletion of shRNA [2]: 1
- fold depletion of shRNA [1]: 1.61

Sequence: CCACAGCACAGGCCTGTGTCT
- fold depletion of shRNA [2]: 0.351

Sequence: CCACAGGCTAACCCCACTCTA
- fold depletion of shRNA [1]: 0.763

Sequence: CCACAGGGTTCAAAATGTCTG
- fold depletion of shRNA [2]: 0.673

Sequence: CCACATGAAGCAGCACGACTT
- fold depletion of shRNA [2]: 1.14
- fold depletion of shRNA [1]: 1.6

Sequence: CCACCACCACCGCCACCGCCA
- fold depletion of shRNA [2]: 2.44

Sequence: CCACCACTACCACCTCCGCCG
- fold depletion of shRNA [2]: 2.27

Sequence: CCACCCCAGTCCACCCCCTGA
- fold depletion of shRNA [2]: 31.6

Sequence: CCACCCCCGAAAATGTTCAAT
- fold depletion of shRNA [1]: 3.73

Sequence: CCACCCCCTGAAAAAAAGGAG
- fold depletion of shRNA [2]: 1.41

Sequence: CCACCCCTGAAGAAGAGAGGG
- fold depletion of shRNA [2]: 2.07

Sequence: CCACCCTCGTGACCACCCTGG
- fold depletion of shRNA [2]: 0.969
- fold depletion of shRNA [1]: 0.967

Sequence: CCACCCTGGGCTACGGCCTGC
- fold depletion of shRNA [2]: 0.861
- fold depletion of shRNA [1]: 0.621

Sequence: CCACCGCCACCACTACCACCT
- fold depletion of shRNA [2]: 2.17

Sequence: CCACCGCCACCGCCACCACTA
- fold depletion of shRNA [2]: 0.194

Sequence: CCACCGGCAAGCTGCCCGTGC
- fold depletion of shRNA [2]: 0.722
- fold depletion of shRNA [1]: 1.02

Sequence: CCACCTAAAGAACTTCCATTT
- fold depletion of shRNA [1]: 1.9

Sequence: CCACCTACGGCAAGCTGACCC
- fold depletion of shRNA [2]: 0.578
- fold depletion of shRNA [1]: 1.13

Sequence: CCACTAATTGTTTGGGTGAAG
- fold depletion of shRNA [1]: 1.23

Sequence: CCACTACCACCTCCGCCGCCG
- fold depletion of shRNA [2]: 6.39

Sequence: CCACTACCAGCAGAACACCCC
- fold depletion of shRNA [2]: 1.8
- fold depletion of shRNA [1]: 1.52

Sequence: CCACTACCTGAGCTACCAGTC
- fold depletion of shRNA [2]: 2.32
- fold depletion of shRNA [1]: 2.88

Sequence: CCACTATTGCTGGAGTCATGA
- fold depletion of shRNA [1]: 4.71

Sequence: CCACTCTATGAATCAATAGAA
- fold depletion of shRNA [1]: 0.99

Sequence: CCACTGGCAGCATCTTCACTT
- fold depletion of shRNA [2]: 1.24

Sequence: CCACTTTGCCTCTAAATTACC
- fold depletion of shRNA [1]: 2.6

Sequence: CCAGAAGGCCTGGTCAAAGGA
- fold depletion of shRNA [2]: 5.58

Sequence: CCAGAATACCAAGTGCAGATG
- fold depletion of shRNA [1]: 3.02

Sequence: CCAGACAAATGGAGGAATATG
- fold depletion of shRNA [2]: 2.38

Sequence: CCAGACTGCGTGCCCTGCCAA
- fold depletion of shRNA [1]: 0.785

Sequence: CCAGATCTAACTTGGGGTGGC
- fold depletion of shRNA [1]: 0.802

Sequence: CCAGATCTACTGGGTGGACAG
- fold depletion of shRNA [2]: 13.2

Sequence: CCAGCAACACCAAGTGCAAAG
- fold depletion of shRNA [1]: 0.637

Sequence: CCAGCAGAACACCCCCATCGG
- fold depletion of shRNA [2]: 1.74
- fold depletion of shRNA [1]: 1.9

Sequence: CCAGCCAGATGCACACAGCAT
- fold depletion of shRNA [2]: 4.31

Sequence: CCAGCTCTCCCTGGGCCCCTC
- fold depletion of shRNA [2]: 4.27

Sequence: CCAGGAGCGCACCATCTTCTT
- fold depletion of shRNA [2]: 1.97
- fold depletion of shRNA [1]: 1.66

Sequence: CCAGGATCTGGTGATGATGGA
- fold depletion of shRNA [2]: 1.3

Sequence: CCAGGCACAGTTCTTCCCTGT
- fold depletion of shRNA [2]: 2.43

Sequence: CCAGGTGAAAGGAAAGCTAGG
- fold depletion of shRNA [1]: 0.897

Sequence: CCAGGTGTTCTACACTCATCT
- fold depletion of shRNA [2]: 3.22

Sequence: CCAGTCCGCCCTGAGCAAAGA
- fold depletion of shRNA [2]: 2.6
- fold depletion of shRNA [1]: 2.39

Sequence: CCAGTGCAATTGTAGGGGTGT
- fold depletion of shRNA [2]: 1.59

Sequence: CCAGTGCTGATCATTTATATG
- fold depletion of shRNA [2]: 1.02

Sequence: CCATAAGCCCTGTCCTCCAGG
- fold depletion of shRNA [1]: 1.36

Sequence: CCATATCCCCAGATCTACTGG
- fold depletion of shRNA [2]: 2.34

Sequence: CCATATTTCTAAACTTTGTTT
- fold depletion of shRNA [1]: 1.7

Sequence: CCATCCTGGTCGAGCTGGACG
- fold depletion of shRNA [2]: 1.21
- fold depletion of shRNA [1]: 2.15

Sequence: CCATCGGCGACGGCCCCGTGC
- fold depletion of shRNA [2]: 0.927
- fold depletion of shRNA [1]: 1.07

Sequence: CCATCTTCTTCAAGGACGACG
- fold depletion of shRNA [2]: 1.26
- fold depletion of shRNA [1]: 2.67

Sequence: CCATGCCCGAAGGCTACGTCC
- fold depletion of shRNA [2]: 1.72
- fold depletion of shRNA [1]: 1.15

Sequence: CCATGCCTCTGGAATGGGAAG
- fold depletion of shRNA [2]: 2.25

Sequence: CCATGTAAAACCTGCTACAAA
- fold depletion of shRNA [1]: 0.892

Sequence: CCATGTGAAGAGGGAGAAGCA
- fold depletion of shRNA [2]: 2.34

Sequence: CCATGTTTGCAATCAAAGATG
- fold depletion of shRNA [1]: 0.444

Sequence: CCATTATGATTCTTTGTTACA
- fold depletion of shRNA [2]: 1.54

Sequence: CCATTTAACAGGCAAGTCCAA
- fold depletion of shRNA [2]: 0.935

Sequence: CCATTTATGGAGGATTTTTTT
- fold depletion of shRNA [1]: 0.798

Sequence: CCATTTTTCTTCCAAATGCAG
- fold depletion of shRNA [1]: 0.556

Sequence: CCCAAACATGGAAATATCACC
- fold depletion of shRNA [1]: 2.11

Sequence: CCCAAATAGGAGTGTATGCAG
- fold depletion of shRNA [1]: 1.06

Sequence: CCCAACGAGAAGCGCGATCAC
- fold depletion of shRNA [2]: 2.9
- fold depletion of shRNA [1]: 1.32

Sequence: CCCAAGTTTCTAAGATTTAAG
- fold depletion of shRNA [1]: 1.22

Sequence: CCCACCCCCGAAAATGTTCAA
- fold depletion of shRNA [1]: 4.99

Sequence: CCCACCCTCGTGACCACCCTG
- fold depletion of shRNA [2]: 1.16
- fold depletion of shRNA [1]: 1.6

Sequence: CCCACTCTATGAATCAATAGA
- fold depletion of shRNA [1]: 1.18

Sequence: CCCACTGGCAGCATCTTCACT
- fold depletion of shRNA [2]: 1.13

Sequence: CCCAGAATACCAAGTGCAGAT
- fold depletion of shRNA [1]: 1.84

Sequence: CCCAGATCTACTGGGTGGACA
- fold depletion of shRNA [2]: 1.61

Sequence: CCCAGGATCTGGTGATGATGG
- fold depletion of shRNA [2]: 1.73

Sequence: CCCAGTCCACCCCCTGAAAAA
- fold depletion of shRNA [2]: 1.42

Sequence: CCCATATCCCCAGATCTACTG
- fold depletion of shRNA [2]: 1.13

Sequence: CCCATCCTGGTCGAGCTGGAC
- fold depletion of shRNA [1]: 1.95
